Results on one molecule are retold here after patent US10961286B2, “Nucleic acids, vectors, host cells, and methods for recombinantly producing water-soluble membrane proteins” (CORNELL UNIVERSITY, priority 2014, dated 2021).

The procedure of the series: E. coli strain DH5α was used for cloning while protein expression was carried out in E. coli strain BL21(DE3). Overnight cultures were diluted 1:500 in terrific broth (TB) supplemented with the appropriate antibiotic (50 μg mL^−1 kanamycin or 100 μg mL^−1 ampicillin) and grown at 30° C. until culture optical density (OD600) reached ˜1.0. The temperature was then lowered to 16° C. and protein expression was induced with isopropyl-β-D-thiogalactoside (IPTG) to a final concentration of 0.1 mM. Cells were collected 20 h post induction.
Following protein expression, 20 mL of cells expressing IMP fusions were harvested. Cultures were normalized by OD600 and culture aliquots were pelleted via centrifugation for 10 min at 4° C. and 4,000×g. Cells were then resuspended in lysis buffer containing 30 mM Tris pH 8.0, 500 mM NaCl, and 40 mM imidazole pH 8.0 and lysed using a homogenizer (Avestin Emulsiflex C5). To separate soluble proteins from membranes, the homogenate was ultracentrifuged (100,000×g) for 1 h at 4° C. and the supernatant was collected as the soluble fraction. […] IMPs in the various fractions were separated by SDS-PAGE using 10% polyacrylamide gels (Bio-Rad) and subsequently detected by Western blotting according to standard protocols using a 1:5,000-diluted monoclonal anti-6×-His HRP-conjugated antibody (Abcam).

B1: EmrE: E. coli ethidium multidrug resistance protein E, 110 amino acids, expressed alone (protein, UniProt P23895 1-110, looked up)
Multidrug transporter EmrE: MNPYIYLGGAILAEVIGTTLMKFSEGFTRLWPSVGTIICYCASFWLLAQTLAYIPTGIAYAIWSGVGIVLISLLSWGFFGQRLDLPAIIGMMLICAGVLIINLLSRSTPH
As to B1, the “partitioning to soluble, detergent soluble and insoluble fractions of the lysate” value was “detected in the detergent soluble and insoluble fractions only”.
